{"source": "the supplement of paper PMC11055344", "key": {"amoxicillin": {"compound": "CC1(C)S[C@@H]2[C@H](NC(=O)[C@H](N)c3ccc(O)cc3)C(=O)N2[C@H]1C(=O)O [amoxicillin]", "assay": "Broth microdilution."}, "penicillin G": {"compound": "CC1(C)S[C@@H]2[C@H](NC(=O)Cc3ccccc3)C(=O)N2[C@H]1C(=O)O [penicillin G]", "assay": "Broth microdilution."}}, "note": "MIC of nasopharyngeal S. pneumoniae isolates by broth microdilution (range and time not stated); higher = less susceptible. No active / inactive call per row; the paper counts penicillin above 0.06 and amoxicillin above 0.5 mg/L as non-susceptible (EUCAST). The lowest value, 0.01, is taken as the floor ('<='); the source prints it plain. Penicillin G is assumed for 'penicillin'. Isolates are numbered anew. PBP alleles are the type numbers of penicillin-binding proteins 1a, 2b and 2x; equal numbers mean equal sequences.", "data": [{"test system": "Streptococcus pneumoniae isolate 317 (PBP alleles 1a 2b 2x: 2_0_6, serotype: 23A)", "values": [{"measurement": "MIC", "setting": "amoxicillin", "result": 0.03, "unit": "µg/mL"}, {"measurement": "MIC", "setting": "penicillin G", "result": 0.03, "unit": "µg/mL"}]}, {"test system": "Streptococcus pneumoniae isolate 318 (PBP alleles 1a 2b 2x: 1_0_0, serotype: 15B/C)", "values": [{"measurement": "MIC", "setting": "amoxicillin", "result": "≤ 0.01", "unit": "µg/mL"}, {"measurement": "MIC", "setting": "penicillin G", "result": 0.03, "unit": "µg/mL"}]}, {"test system": "Streptococcus pneumoniae isolate 319 (PBP alleles 1a 2b 2x: 0_0_2, serotype: 10A)", "values": [{"measurement": "MIC", "setting": "amoxicillin", "result": "≤ 0.01", "unit": "µg/mL"}, {"measurement": "MIC", "setting": "penicillin G", "result": "≤ 0.01", "unit": "µg/mL"}]}, {"test system": "Streptococcus pneumoniae isolate 320 (PBP alleles 1a 2b 2x: 24_27_77, serotype: 15A)", "values": [{"measurement": "MIC", "setting": "amoxicillin", "result": 0.125, "unit": "µg/mL"}, {"measurement": "MIC", "setting": "penicillin G", "result": 0.25, "unit": "µg/mL"}]}, {"test system": "Streptococcus pneumoniae isolate 321 (PBP alleles 1a 2b 2x: 2_6_0, serotype: 11A)", "values": [{"measurement": "MIC", "setting": "amoxicillin", "result": "≤ 0.01", "unit": "µg/mL"}, {"measurement": "MIC", "setting": "penicillin G", "result": "≤ 0.01", "unit": "µg/mL"}]}, {"test system": "Streptococcus pneumoniae isolate 322 (PBP alleles 1a 2b 2x: 0_0_2, serotype: 15B/C)", "values": [{"measurement": "MIC", "setting": "amoxicillin", "result": "≤ 0.01", "unit": "µg/mL"}, {"measurement": "MIC", "setting": "penicillin G", "result": 0.03, "unit": "µg/mL"}]}, {"test system": "Streptococcus pneumoniae isolate 323 (PBP alleles 1a 2b 2x: 2_0_2, serotype: 15B/C)", "values": [{"measurement": "MIC", "setting": "amoxicillin", "result": "≤ 0.01", "unit": "µg/mL"}, {"measurement": "MIC", "setting": "penicillin G", "result": 0.03, "unit": "µg/mL"}]}, {"test system": "Streptococcus pneumoniae isolate 324 (PBP alleles 1a 2b 2x: 0_New_3, serotype: 35F)", "values": [{"measurement": "MIC", "setting": "amoxicillin", "result": "≤ 0.01", "unit": "µg/mL"}, {"measurement": "MIC", "setting": "penicillin G", "result": 0.03, "unit": "µg/mL"}]}, {"test system": "Streptococcus pneumoniae isolate 325 (PBP alleles 1a 2b 2x: 0_0_0, serotype: 15B/C)", "values": [{"measurement": "MIC", "setting": "amoxicillin", "result": 0.03, "unit": "µg/mL"}, {"measurement": "MIC", "setting": "penicillin G", "result": 0.03, "unit": "µg/mL"}]}, {"test system": "Streptococcus pneumoniae isolate 326 (PBP alleles 1a 2b 2x: 12_0_0, serotype: 31)", "values": [{"measurement": "MIC", "setting": "amoxicillin", "result": "≤ 0.01", "unit": "µg/mL"}, {"measurement": "MIC", "setting": "penicillin G", "result": 0.03, "unit": "µg/mL"}]}, {"test system": "Streptococcus pneumoniae isolate 327 (PBP alleles 1a 2b 2x: 0_1_1, serotype: 23B1)", "values": [{"measurement": "MIC", "setting": "amoxicillin", "result": 0.06, "unit": "µg/mL"}, {"measurement": "MIC", "setting": "penicillin G", "result": 0.125, "unit": "µg/mL"}]}, {"test system": "Streptococcus pneumoniae isolate 328 (PBP alleles 1a 2b 2x: 3_6_5, serotype: 8)", "values": [{"measurement": "MIC", "setting": "amoxicillin", "result": "≤ 0.01", "unit": "µg/mL"}, {"measurement": "MIC", "setting": "penicillin G", "result": "≤ 0.01", "unit": "µg/mL"}]}, {"test system": "Streptococcus pneumoniae isolate 329 (PBP alleles 1a 2b 2x: 78_0_0, serotype: Serogroup 24)", "values": [{"measurement": "MIC", "setting": "amoxicillin", "result": "≤ 0.01", "unit": "µg/mL"}, {"measurement": "MIC", "setting": "penicillin G", "result": 0.03, "unit": "µg/mL"}]}, {"test system": "Streptococcus pneumoniae isolate 330 (PBP alleles 1a 2b 2x: 0_0_2, serotype: 35D)", "values": [{"measurement": "MIC", "setting": "amoxicillin", "result": "≤ 0.01", "unit": "µg/mL"}, {"measurement": "MIC", "setting": "penicillin G", "result": "≤ 0.01", "unit": "µg/mL"}]}, {"test system": "Streptococcus pneumoniae isolate 331 (PBP alleles 1a 2b 2x: 2_0_2, serotype: 15B/C)", "values": [{"measurement": "MIC", "setting": "amoxicillin", "result": "≤ 0.01", "unit": "µg/mL"}, {"measurement": "MIC", "setting": "penicillin G", "result": 0.03, "unit": "µg/mL"}]}, {"test system": "Streptococcus pneumoniae isolate 332 (PBP alleles 1a 2b 2x: 11_0_172, serotype: 17F)", "values": [{"measurement": "MIC", "setting": "amoxicillin", "result": "≤ 0.01", "unit": "µg/mL"}, {"measurement": "MIC", "setting": "penicillin G", "result": 0.03, "unit": "µg/mL"}]}, {"test system": "Streptococcus pneumoniae isolate 333 (PBP alleles 1a 2b 2x: 0_0_0, serotype: 23B)", "values": [{"measurement": "MIC", "setting": "amoxicillin", "result": "≤ 0.01", "unit": "µg/mL"}, {"measurement": "MIC", "setting": "penicillin G", "result": 0.03, "unit": "µg/mL"}]}, {"test system": "Streptococcus pneumoniae isolate 334 (PBP alleles 1a 2b 2x: 7_67_1, serotype: 23B1)", "values": [{"measurement": "MIC", "setting": "amoxicillin", "result": 0.06, "unit": "µg/mL"}, {"measurement": "MIC", "setting": "penicillin G", "result": 0.25, "unit": "µg/mL"}]}, {"test system": "Streptococcus pneumoniae isolate 335 (PBP alleles 1a 2b 2x: 0_0_3, serotype: 33F)", "values": [{"measurement": "MIC", "setting": "amoxicillin", "result": 0.03, "unit": "µg/mL"}, {"measurement": "MIC", "setting": "penicillin G", "result": 0.03, "unit": "µg/mL"}]}, {"test system": "Streptococcus pneumoniae isolate 336 (PBP alleles 1a 2b 2x: 2_0_6, serotype: 23A)", "values": [{"measurement": "MIC", "setting": "amoxicillin", "result": "≤ 0.01", "unit": "µg/mL"}, {"measurement": "MIC", "setting": "penicillin G", "result": "≤ 0.01", "unit": "µg/mL"}]}, {"test system": "Streptococcus pneumoniae isolate 337 (PBP alleles 1a 2b 2x: 0_1_1, serotype: 23B1)", "values": [{"measurement": "MIC", "setting": "amoxicillin", "result": 0.03, "unit": "µg/mL"}, {"measurement": "MIC", "setting": "penicillin G", "result": 0.125, "unit": "µg/mL"}]}, {"test system": "Streptococcus pneumoniae isolate 338 (PBP alleles 1a 2b 2x: 7_1_1, serotype: 23B1)", "values": [{"measurement": "MIC", "setting": "amoxicillin", "result": 0.06, "unit": "µg/mL"}, {"measurement": "MIC", "setting": "penicillin G", "result": 0.25, "unit": "µg/mL"}]}, {"test system": "Streptococcus pneumoniae isolate 339 (PBP alleles 1a 2b 2x: 2_0_6, serotype: 23A)", "values": [{"measurement": "MIC", "setting": "amoxicillin", "result": "≤ 0.01", "unit": "µg/mL"}, {"measurement": "MIC", "setting": "penicillin G", "result": 0.03, "unit": "µg/mL"}]}, {"test system": "Streptococcus pneumoniae isolate 340 (PBP alleles 1a 2b 2x: 0_1_1, serotype: 23B1)", "values": [{"measurement": "MIC", "setting": "amoxicillin", "result": 0.06, "unit": "µg/mL"}, {"measurement": "MIC", "setting": "penicillin G", "result": 0.125, "unit": "µg/mL"}]}, {"test system": "Streptococcus pneumoniae isolate 341 (PBP alleles 1a 2b 2x: 0_0_53, serotype: 10A)", "values": [{"measurement": "MIC", "setting": "amoxicillin", "result": "≤ 0.01", "unit": "µg/mL"}, {"measurement": "MIC", "setting": "penicillin G", "result": 0.03, "unit": "µg/mL"}]}, {"test system": "Streptococcus pneumoniae isolate 342 (PBP alleles 1a 2b 2x: 0_0_3, serotype: 35F)", "values": [{"measurement": "MIC", "setting": "amoxicillin", "result": "≤ 0.01", "unit": "µg/mL"}, {"measurement": "MIC", "setting": "penicillin G", "result": "≤ 0.01", "unit": "µg/mL"}]}, {"test system": "Streptococcus pneumoniae isolate 343 (PBP alleles 1a 2b 2x: 1_0_0, serotype: 15B/C)", "values": [{"measurement": "MIC", "setting": "amoxicillin", "result": "≤ 0.01", "unit": "µg/mL"}, {"measurement": "MIC", "setting": "penicillin G", "result": 0.03, "unit": "µg/mL"}]}, {"test system": "Streptococcus pneumoniae isolate 344 (PBP alleles 1a 2b 2x: New_60_New, serotype: Non-typeable/NCC2b)", "values": [{"measurement": "MIC", "setting": "amoxicillin", "result": 0.25, "unit": "µg/mL"}, {"measurement": "MIC", "setting": "penicillin G", "result": 0.5, "unit": "µg/mL"}]}, {"test system": "Streptococcus pneumoniae isolate 345 (PBP alleles 1a 2b 2x: 34_32_43, serotype: 19F)", "values": [{"measurement": "MIC", "setting": "amoxicillin", "result": 1, "unit": "µg/mL"}, {"measurement": "MIC", "setting": "penicillin G", "result": 1, "unit": "µg/mL"}]}]}
